# Assay results taken from ChEMBL document CHEMBL1961873, “Compounds: GSK PKIS; Assays: Nanosyn kinase panel” (2012).
# This is a selection; strong and weak results do not stand in their true shares.
# Molecular target: Tyrosine-protein kinase receptor UFO (Homo sapiens) (UniProt P30530)
# Details: at 1 µM
# Sequence of UniProt P30530 (P30530 whole entry): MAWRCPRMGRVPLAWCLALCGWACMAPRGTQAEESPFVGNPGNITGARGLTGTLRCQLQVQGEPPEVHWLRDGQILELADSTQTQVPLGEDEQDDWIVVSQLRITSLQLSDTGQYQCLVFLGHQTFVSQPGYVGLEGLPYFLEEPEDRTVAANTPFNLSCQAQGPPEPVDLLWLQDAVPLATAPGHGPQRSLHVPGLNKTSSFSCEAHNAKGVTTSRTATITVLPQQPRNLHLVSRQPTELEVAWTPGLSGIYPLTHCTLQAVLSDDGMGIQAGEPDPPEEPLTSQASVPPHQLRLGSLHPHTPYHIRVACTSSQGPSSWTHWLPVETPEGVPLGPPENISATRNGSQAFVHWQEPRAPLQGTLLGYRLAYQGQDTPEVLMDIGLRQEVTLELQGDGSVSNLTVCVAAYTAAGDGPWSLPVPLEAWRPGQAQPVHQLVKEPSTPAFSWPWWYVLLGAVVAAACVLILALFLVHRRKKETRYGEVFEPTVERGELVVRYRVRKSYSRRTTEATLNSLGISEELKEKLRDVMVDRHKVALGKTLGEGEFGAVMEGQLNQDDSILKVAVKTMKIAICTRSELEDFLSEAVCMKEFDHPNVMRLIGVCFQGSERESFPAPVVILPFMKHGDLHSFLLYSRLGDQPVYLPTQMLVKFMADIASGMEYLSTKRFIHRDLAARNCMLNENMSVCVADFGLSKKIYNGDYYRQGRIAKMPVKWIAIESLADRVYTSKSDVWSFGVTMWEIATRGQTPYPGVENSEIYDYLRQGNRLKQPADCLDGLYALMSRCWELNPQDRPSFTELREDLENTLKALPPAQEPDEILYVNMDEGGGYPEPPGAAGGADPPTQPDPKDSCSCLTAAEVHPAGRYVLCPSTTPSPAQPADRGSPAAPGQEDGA
row,Structure (SMILES),inhibition [%]
1,O=C1NC(=O)C(c2ccccc2)=C1Nc1ccccc1,-6.3
2,CS(=O)(=O)c1ccc(Oc2nccc(-c3c(-c4ccc(F)cc4)ncn3C3CCNCC3)n2)cc1,-5.8
3,Cc1cccc(Oc2nccc(-c3c(-c4ccc(F)cc4)ncn3C3CCNCC3)n2)c1C,-4.55
4,COc1ccccc1Oc1nccc(-c2c(-c3ccc(F)cc3)ncn2C2CCNCC2)n1,-4.58
5,O=C1NC(=O)C(c2cccc([N+](=O)[O-])c2)=C1Nc1cc(Cl)c(O)c(Cl)c1,1.02
6,NC(=O)CCc1ccccc1Oc1nccc(-c2c(-c3ccc(F)cc3)ncn2C2CCNCC2)n1,1.56
7,Fc1ccc(-c2ncn(C3CCNCC3)c2-c2ccnc(Oc3cccc(C(F)(F)F)c3)n2)cc1,-6.06
8,CC(C)(C)c1ccc(Oc2nccc(-c3c(-c4ccc(F)cc4)ncn3C3CCNCC3)n2)cc1,-1.65
9,Fc1ccc(-c2ncn(C3CCNCC3)c2-c2ccnc(Oc3ccc(Cl)cc3)n2)cc1,0.46
10,Fc1ccc(-c2ncn(C3CCNCC3)c2-c2ccnc(Oc3cccc(F)c3)n2)cc1,-5.13
11,O=C(O)c1ccc(Oc2nccc(-c3c(-c4ccc(F)cc4)ncn3C3CCNCC3)n2)cc1,-6.84
12,O=C1NC(=O)C(c2ccccc2Cl)=C1Nc1cc(Cl)c(O)c(Cl)c1,-4.63
13,COc1ccccc1C1=C(Nc2ccccc2)C(=O)NC1=O,-1.8

# Molecular target: Tyrosine-protein kinase Blk (Homo sapiens) (UniProt P51451);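 further: reported value is the mean percent inhibition of BLK kinase activity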
# Details: at 0.1 µM
# Sequence of UniProt P51451 (P51451 whole entry, looked up): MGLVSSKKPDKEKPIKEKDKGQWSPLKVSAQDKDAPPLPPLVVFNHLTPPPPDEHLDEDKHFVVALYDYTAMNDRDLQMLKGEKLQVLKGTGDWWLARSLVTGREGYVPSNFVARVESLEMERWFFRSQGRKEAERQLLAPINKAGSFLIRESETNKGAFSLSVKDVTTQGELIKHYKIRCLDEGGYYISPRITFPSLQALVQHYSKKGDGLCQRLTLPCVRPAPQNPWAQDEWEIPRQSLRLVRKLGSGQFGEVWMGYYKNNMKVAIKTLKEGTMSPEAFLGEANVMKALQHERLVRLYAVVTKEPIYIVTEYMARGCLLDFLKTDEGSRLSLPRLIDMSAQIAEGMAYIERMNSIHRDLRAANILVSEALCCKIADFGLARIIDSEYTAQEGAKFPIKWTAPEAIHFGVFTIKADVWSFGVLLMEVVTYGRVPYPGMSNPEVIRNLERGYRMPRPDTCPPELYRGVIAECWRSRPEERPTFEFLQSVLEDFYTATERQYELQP
row,Structure (SMILES),inhibition [%]
1,O=C1NC(=O)C(c2ccccc2)=C1Nc1ccccc1,4.12
2,CS(=O)(=O)c1ccc(Oc2nccc(-c3c(-c4ccc(F)cc4)ncn3C3CCNCC3)n2)cc1,1.82
3,Fc1ccc(Oc2nccc(-c3c(-c4ccc(F)cc4)ncn3C3CCNCC3)n2)cc1,-1.53
4,Cc1cccc(Oc2nccc(-c3c(-c4ccc(F)cc4)ncn3C3CCNCC3)n2)c1C,2.01
5,COc1ccccc1Oc1nccc(-c2c(-c3ccc(F)cc3)ncn2C2CCNCC2)n1,3.3
6,O=C1NC(=O)C(c2cccc([N+](=O)[O-])c2)=C1Nc1cc(Cl)c(O)c(Cl)c1,3.37
7,NC(=O)CCc1ccccc1Oc1nccc(-c2c(-c3ccc(F)cc3)ncn2C2CCNCC2)n1,-2.5
8,Fc1ccc(-c2ncn(C3CCNCC3)c2-c2ccnc(Oc3cccc(C(F)(F)F)c3)n2)cc1,2.9
9,CC(C)(C)c1ccc(Oc2nccc(-c3c(-c4ccc(F)cc4)ncn3C3CCNCC3)n2)cc1,1.04
10,Fc1ccc(-c2ncn(C3CCNCC3)c2-c2ccnc(Oc3ccc(Cl)cc3)n2)cc1,0.54
11,Fc1ccc(-c2ncn(C3CCNCC3)c2-c2ccnc(Oc3cccc(F)c3)n2)cc1,5.81
12,O=C(O)c1ccc(Oc2nccc(-c3c(-c4ccc(F)cc4)ncn3C3CCNCC3)n2)cc1,1.4
13,O=C1NC(=O)C(c2ccccc2Cl)=C1Nc1cc(Cl)c(O)c(Cl)c1,2.25
14,COc1ccccc1C1=C(Nc2ccccc2)C(=O)NC1=O,2.73
